Consider 52 compounds from ChEMBL document CHEMBL4888484, “Replenishing the malaria drug discovery pipeline: Screening and hit evaluation of the MMV Hit Generation Library 1 (HGL1) against asexual blood stage Plasmodium falciparum ,using a nano luciferase reporter read-out” (2022).

Out of some 150,000 compounds screened, about 540 (0.36%) showed an effect of 50% or more. The list shows a part of the results.

The test system of this test is Plasmodium falciparum. Put plainly: Primary screen in NF54 nanoGlo assay, in single point, at 2uM, 72h; a lower Z score goes with more inhibition. The format is functional, Erythrocyte. To be noted: timepoint 72 hour.
As to `Clc1ccc(CCNc2nc(-c3nnc(-c4ccccc4)o3)nc3ccccc23)cc1`, the % Inhibition (usually the drop in the measured response relative to a control, in per cent) was 1% and the Z score is given as -0.1.
For `COc1ccc(CN2CCC[C@H](n3c(C)cnc3-c3ccncc3)C2)cc1C`, in that order: 3% and -0.31.
With `O=C(Cn1cccn1)N1CCCS(=O)(=O)C[C@H]1c1ccccc1`, the “% Inhibition” value is on record as -11% and the Z score was determined as 1.47.
In the case of `COCCN(C[C@H]1CCCN2CCCC[C@@H]12)C(=O)CCc1nc2ccccc2c(=O)[nH]1`, the “% Inhibition” value was -4% and the Z score is listed as 0.46.
In the case of `O=C(c1nn(-c2ccccc2)c(=O)c2ccccc12)N1CCCC1`, the “% Inhibition” value was -2% and the Z score is on record as 0.32.
With `CCN(C(=O)c1cc(-c2ccc(F)cc2)[nH]n1)[C@H]1CCS(=O)(=O)C1`, the “% Inhibition” value is listed as 6% and the Z score was -0.83.
Regarding `COC(=O)[C@H](C)N(Cc1cncnc1)C1CCC1`, the “% Inhibition” value came to 3% and the Z score is listed as -0.43.
For the compound `Cc1cc(CN2CCN(S(=O)(=O)N3CCC(C)CC3)CC2)on1`, the “% Inhibition” value was -5% and the Z score turned out to be 0.92.
For `Cc1ccc(CN2CCCn3nc(CN4CCNC(=O)C4)cc3C2)s1`, the “% Inhibition” value was 2% and the Z score is recorded as -0.19.
Take `COc1ccc(CN2C(=O)N[C@@H](CC(=O)N3CCN(c4ccccn4)CC3)C2=O)cc1`: the “% Inhibition” value is recorded as -5% and the Z score came out at 0.68.
As for `CO[C@H]1COC[C@@H]1NC(=O)Cc1cccs1`, the “% Inhibition” value is recorded as -2% and the Z score is reported as 0.42.
In the case of `O=c1n(-c2ccc(Cl)cc2)c(=O)n2n1C1CCC2C1`, the “% Inhibition” value was -23% and the Z score is 2.71.
On to `O=C(c1ccc(-c2noc(C(F)(F)F)n2)cc1)N1CCC1`, for which the “% Inhibition” value turned out to be 29% and the Z score is given as -3.23.
`CCN(C(=O)c1ccco1)c1nc(-c2ccc(C3CCCCC3)cc2)cs1`: the “% Inhibition” value is -15% and the Z score came out at 2.29.
The corresponding values for `CCOc1ccc(S(=O)(=O)N2CCc3c([nH]c4ccccc34)[C@H]2c2ccc(C)cc2)cc1` are 5% and -0.58.
Consider `COCC(=O)N[C@H]1CN(c2nc(C)c(C)c(C)c2C#N)C[C@@H]1C1CC1`, for which the “% Inhibition” value turned out to be 3% and the Z score is given as -0.64.
Consider `c1nc(N2C[C@@H]3CCCC[C@@H]32)c2cc[nH]c2n1`, for which the “% Inhibition” value is on record as -7% and the Z score was found to be 1.28.
Regarding `Cc1cc(NC(=O)c2ccc(-c3cc(C(F)(F)F)ccc3Cl)o2)no1`, the “% Inhibition” value is on record as -13% and the Z score came to 2.5.
Consider `CN1C(=O)[C@]2(CCN(C(=O)Nc3ccc4c(c3)OCCO4)C2)c2ccccc21`, for which the “% Inhibition” value was determined as 9% and the Z score is -1.17.
The corresponding values for `O=C(Nc1cnn2ccccc12)[C@H]1CC[C@H](Nc2cnccn2)CC1` are 9% and -1.19.
Take `CN(C(=O)c1ccccc1C(F)(F)F)C1COCC1O` (centres undefined): the “% Inhibition” value is given as -11% and the Z score is 1.43.
The corresponding values for `COc1ccc(C(=O)NCCc2nc(C(C)C)cs2)o1` are -8% and 1.53.
Consider `Cc1ccc(-c2n[nH]c(NS(=O)(=O)c3c(C)nn(C)c3C)c2C)o1`, for which the “% Inhibition” value was 29% and the Z score is -3.88.
For the compound `COc1ccc([C@H]2C[C@H]3CC[C@@H](C2)N3C(=O)Cc2cc(C)no2)cc1`, the “% Inhibition” value is listed as 25% and the Z score is -2.89.
Turning to `CC(NC(=O)[C@@H]1CC[C@H](C(=O)O)C1)c1ncc(-c2ccccc2)o1` (some centres undefined), the “% Inhibition” value is -10% and the Z score was found to be 1.84.
On to `CCCCc1noc(CN(C)CCN2CCCC2)n1`, for which the “% Inhibition” value was -8% and the Z score is 1.07.
For `O=C(C1CCC1)N(CCc1ccc(F)cc1)Cc1cc2ccc(Cl)cc2nc1N1CCC(O)CC1`, the “% Inhibition” value was determined as 18% and the Z score is -2.39.
On to `CC(C)(C)OC(=O)N1C[C@@H](F)C[C@@H]1C(N)=O`, for which the “% Inhibition” value is given as -2% and the Z score was 0.28.
Regarding `CC(C)Nc1nnccc1C(=O)N1CCC[C@H](C(F)(F)F)C1`, the “% Inhibition” value is -6% and the Z score is given as 0.67.
With `Cc1cccc(C(=O)N2CC3(C[C@H](N4CCCCC4)CO3)C2)c1`, the “% Inhibition” value is given as -7% and the Z score was 1.1.
For `Cc1cc(N2CCN(C3CCC3)CC2)n[nH]1`, in that order: -3% and 0.34.
As for `Cc1cc(N2C[C@@H](CN(C)CCO)[C@@H](CO)C2)nc(-c2ccccc2)n1`, the “% Inhibition” value is given as -9% and the Z score turned out to be 1.82.
Take `Cn1c(-c2cccc(C(=O)NCc3ccc(F)cc3)c2)nc2cccnc21`: the “% Inhibition” value is listed as -9% and the Z score is recorded as 1.16.
In the case of `C[C@H](NC(=O)c1cc(C(F)(F)F)n[nH]1)c1n[nH]c(N)n1`, the “% Inhibition” value is -2% and the Z score was 0.47.
As for `C[C@@H]1CN(C(=O)NCc2ccc(=O)[nH]n2)C[C@H](C)N1CC(F)(F)F`, the “% Inhibition” value was -6% and the Z score came to 1.
As to `Cc1cc(NC(=O)NCC2CCCC2O)nn1CCC#N` (centres undefined), the “% Inhibition” value is 1% and the Z score is given as -0.12.
For `Cc1nc2n(n1)CCC[C@@H]2NC(=O)Nc1ccccc1Oc1cc(F)cc(F)c1`, the “% Inhibition” value is -11% and the Z score is on record as 1.68.
For `CO[C@H]1CC[C@@]2(OC)CCN(C(=O)c3ccc(-c4cc[nH]n4)cc3)[C@H]2C1`, in that order: -12% and 2.35.
As for `CCOC1CC(CO)(NCc2cncnc2)C1(C)C` (centres undefined), the “% Inhibition” value is -6% and the Z score was determined as 0.59.
The corresponding values for `CC1CCC2(CC1)NC(=O)N(Cc1cc(Cl)c3c(c1)OCCCO3)C2=O` (centres undefined) are -13% and 2.03.
Consider `CC(Cc1ccccc1Cl)C(=O)NC1CCN(C(=O)Nc2ccccc2)C1` (centres undefined), for which the “% Inhibition” value is given as -1% and the Z score turned out to be 0.11.
As to `O=C(c1cccc(-c2nc(-c3ccc(F)cc3)no2)c1)N1CCC(N2CCCCC2)CC1`, the “% Inhibition” value is -7% and the Z score turned out to be 0.76.
For the compound `Cn1nccc1CNc1ccc(OC(F)(F)F)cn1`, the “% Inhibition” value was 5% and the Z score is given as -0.75.
`COc1ccc(C)cc1[C@H](C)NC(=O)N[C@@H]1Cc2ccccc2[C@H]1O`: the “% Inhibition” value is -19% and the Z score was found to be 2.08.
On to `O=S(=O)(Cc1ccco1)C1CN(S(=O)(=O)Cc2ccccc2Cl)C1`, for which the “% Inhibition” value is given as -18% and the Z score is on record as 2.24.
As for `CC[C@H]1CN(S(=O)(=O)c2ccc3c(c2)CCC(=O)N3)CCO1`, the “% Inhibition” value was -9% and the Z score is listed as 0.8.
For `Cc1ccc(CCN(C[C@H]2CCCO2)C(=O)c2cn(C)nc2C)cc1`, in that order: -4% and 0.57.
For `CC[C@H](NC(=O)Cn1ccnc1)c1nccs1`, in that order: -6% and 0.88.
As for `Cc1ccc(NC(=O)N2CCc3nc(N4CCC(C)CC4)nc(Oc4cccc(F)c4)c3C2)cc1`, the “% Inhibition” value is -12% and the Z score is listed as 1.89.
For the compound `CCOCCCNC(=O)c1cn(C)c2c(c(C)nn2-c2ccc(F)cc2)c1=O`, the “% Inhibition” value is on record as -11% and the Z score amounted to 1.75.
With `Cc1cc(C(=O)Nc2nc(-c3ccc4c(c3)OCCO4)cs2)n(C)n1`, the “% Inhibition” value was 22% and the Z score is reported as -3.09.
The corresponding values for `Cc1cccc(N2C(=O)C3C(c4ccccc4O)NC(Cc4c[nH]c5ccccc45)(C(=O)O)C3C2=O)c1` (centres undefined) are -2% and 0.26.
